Test results published in patent US10299477B2 (priority 2015, dated 2019).

Key:
Format in all cases: in vivo
Botrytis cinerea = experiment: Test Example B: Gray mold on tomato; settings: for Test B control value (gray mold on tomato): preventive, control value class
Excerpt: [Test Example B] Gray Mold on Tomato
Seeds of a test plant (tomato variety: Oogata Fukuju) were planted followed by cultivating until three to five first leaves (true leaves) appeared.

Puccinia recondita = experiment: Test Example E: Brown rust on wheat; settings: for Test E control value (brown rust on wheat): preventive, control value class
Excerpt: [Test Example E] Brown Rust on Wheat

[1] = test system: Blumeria graminis f sp. hordei; experiment: Test Example D: Powdery mildew on barley; settings: for Test D control value (powdery mildew on barley): preventive, control value class
Excerpt: [Test Example D] Powdery Mildew on Barley
After the sprayed dilutions were dried, conidia of Blumeria graminis f sp. hordei were inoculated to the plants by shaking off.

Plasmopara viticola = experiment: Test Example G: Downy mildew on vine; settings: for Test G control value (downy mildew on vine): 250 ppm spray (2.5 ml/pot), preventive, control value class; for Test G (control value class): 250 ppm spray
Excerpt: [Test Example G] Downy Mildew on Vine
Seeds of a test plant (grape variety: Neomuscat) were planted followed by cultivating until three to four first leaves appeared. […] After the sprayed dilutions were dried, a zoosporangia suspension (1-2×10^4 zoosporangia/ml) of Plasmopara viticola was inoculated to the plants by spraying.

Alternaia brassicicola = experiment: Test Example C: Alternaria sooty spot on cabbage; settings: for Test C control value (Alternaria sooty spot on cabbage): preventive, control value class; for Test C (control value class) / Test C control value: Alternaria sooty spot on cabbage
Excerpt: [Test Example C] Alternaria Sooty Spot on Cabbage
Seeds of a test plant (cabbage variety: Shikidori) were planted followed by cultivating until the cotyledons extended.

[2] = Downy mildew on vine, 2.5 ml/pot, evaluated 7-10 days after inoculation
[3] = gray mold on tomato, Botrytis cinerea, 250 ppm spray
[4] = brown rust on wheat, Puccinia recondita, 250 ppm spray
[5] = powdery mildew on barley, 250 ppm spray

| Compound | Test B control value (Botrytis cinerea; Gray mold on tomato) | Test E control value (Puccinia recondita; Brown rust on wheat) | Test D control value ([1]; Powdery mildew on barley) | Test C control value (Alternaia brassicicola) | further results |
| --- | --- | --- | --- | --- | --- |
| Cc1ccc(-c2cc(Cl)c(=O)n(C)c2-c2c(F)cccc2F)cc1 [Compound 274] |  |  |  |  | Test B control value (gray mold on tomato) (Botrytis cinerea; 250 ppm spray): H (H shows more than 50% of control values); Test E control value (brown rust on wheat) (Puccinia recondita; 250 ppm spray): H (H shows more than 50% of control values); Test D control value (powdery mildew on barley) ([1]; 250 ppm spray): H (H shows more than 50% of control values); Test G control value (downy mildew on vine) (Plasmopara viticola; 7-10 days after inoculation): H (H shows more than 50% of control values); Test C control value (Alternaria sooty spot on cabbage) (Alternaia brassicicola; 250 ppm spray): H (H shows more than 50% of control values) |
| COc1cccc(-c2ccc(=O)n(C)c2-c2c(F)cccc2F)c1Cl [Compound 784] |  |  |  |  | Test B (control value class) (Botrytis cinerea; Gray mold on tomato, control value=100{1-(n/3)}): H (H shows more than 50% of control values); Test E (control value class) (Puccinia recondita; Brown rust on wheat, control value=100{1-(n/3)}): H (H shows more than 50% of control values); Test D (control value class) ([1]; Powdery mildew on barley, control value=100{1-(n/3)}): H (H shows more than 50% of control values); Test G (control value class) (Plasmopara viticola; [2]): H (H shows more than 50% of control values); Test C (control value class) (Alternaia brassicicola; control value=100{1-(n/3)}): H (H shows more than 50% of control values) |
| CCOc1ccc(Cl)c(-c2cc(Cl)c(=O)n(CC)c2-c2c(F)cccc2F)c1 [Compound 376] |  |  |  |  | Test B (control value class) (Botrytis cinerea; [3]): H (H shows more than 50% of control values); Test E (control value class) (Puccinia recondita; [4]): H (H shows more than 50% of control values); Test D (control value class) [1, 5]: H (H shows more than 50% of control values); Test G (control value class) (Plasmopara viticola; downy mildew on vine, Plasmopara viticola, 7-10 days after inoculation): H (H shows more than 50% of control values); Test C (control value class) (Alternaia brassicicola; 250 ppm spray): H (H shows more than 50% of control values) |
| CCCCOc1ccc(Cl)c(-c2ccc(=O)n(C)c2-c2c(F)cccc2F)c1 [Compound 253] |  |  |  |  | Test B control value (gray mold on tomato) (Botrytis cinerea; 250 ppm spray): H (H shows more than 50% of control values); Test E control value (brown rust on wheat) (Puccinia recondita; 250 ppm spray): L (L shows 50% or less of control values); Test D control value (powdery mildew on barley) ([1]; 250 ppm spray): H (H shows more than 50% of control values); Test G control value (downy mildew on vine) (Plasmopara viticola; 7-10 days after inoculation): H (H shows more than 50% of control values); Test C control value (Alternaria sooty spot on cabbage) (Alternaia brassicicola; 250 ppm spray): H (H shows more than 50% of control values) |
| CCn1c(-c2c(F)cc(OC)cc2F)c(-c2cc(F)cc(F)c2Cl)cc(Cl)c1=O [Compound 666] |  |  |  |  | Test B (control value class, gray mold on tomato) (Botrytis cinerea; in vivo): H (H shows more than 50% of control values); Test E (control value class, brown rust on wheat) (Puccinia recondita; in vivo): H (H shows more than 50% of control values); Test D (control value class, powdery mildew on barley) ([1]; in vivo): H (H shows more than 50% of control values); Test G (control value class, downy mildew on vine) (Plasmopara viticola; 250 ppm, sprayed 2.5 ml/pot before inoculation, evaluated 7-10 days after inoculation): H (H shows more than 50% of control values); Test C (control value class, Alternaria sooty spot on cabbage) (Alternaia brassicicola; in vivo): H (H shows more than 50% of control values) |
| CCn1c(-c2c(F)cc(OC)cc2F)c(-c2cc(F)cc(F)c2Br)cc(Cl)c1=O [Compound 819] |  |  |  |  | Test G (control value class) (Plasmopara viticola; [2]): H (H shows more than 50% of control values) |
| Cn1c(-c2c(F)cc(F)cc2F)c(-c2cc(F)cc(F)c2Br)cc(Br)c1=O [Compound 817] |  |  |  |  | Test G (control value class) (Plasmopara viticola; [2]): L (L shows 50% or less of control values) |
| CCn1c(-c2c(F)cc(OC)cc2F)c(-c2cc(OC)ccc2Cl)ccc1=O [Compound 770] |  |  |  |  | Test G (control value class) (Plasmopara viticola; [2]): L (L shows 50% or less of control values) |
| COc1cc(OC)c(Br)c(-c2ccc(=O)n(C)c2-c2c(F)cccc2F)c1 [Compound 29] | H (H shows more than 50% of control values) | H (H shows more than 50% of control values) | H (H shows more than 50% of control values) | H (H shows more than 50% of control values) |  |
| CCn1c(-c2c(F)cccc2F)c(-c2ccccc2Cl)cc(Cl)c1=O [Compound 75] | H (H shows more than 50% of control values) | H (H shows more than 50% of control values) | H (H shows more than 50% of control values) | H (H shows more than 50% of control values) |  |
| COc1cnc(-c2c(-c3c(F)cccc3F)ccc(=O)n2C)c(Cl)c1 [Compound 7] | H (H shows more than 50% of control values) | H (H shows more than 50% of control values) | L (L shows 50% or less of control values) | H (H shows more than 50% of control values) |  |
| CCn1c(-c2c(F)cccc2F)c(-c2cc(OC)ccc2F)ccc1=O [Compound 89] | H (H shows more than 50% of control values) | H (H shows more than 50% of control values) | H (H shows more than 50% of control values) | H (H shows more than 50% of control values) |  |
| Cn1c(-c2c(F)cccc2F)c(-c2ccccc2)cc(Br)c1=O [Compound 51] | H (H shows more than 50% of control values) | H (H shows more than 50% of control values) | L (L shows 50% or less of control values) | H (H shows more than 50% of control values) |  |
| CCN1C(=O)CCC(c2cc(OC)cc(OC)c2)=C1c1c(F)cc(F)cc1F [Compound 130] | H (H shows more than 50% of control values) | H (H shows more than 50% of control values) | H (H shows more than 50% of control values) | H (H shows more than 50% of control values) |  |
| COc1ccc(Cl)c(-c2ccc(=O)n(C)c2-c2c(F)cccc2F)c1 [Compound 57] | H (H shows more than 50% of control values) | H (H shows more than 50% of control values) | H (H shows more than 50% of control values) | H (H shows more than 50% of control values) |  |
| CCn1c(-c2c(F)cc(Cl)cc2F)c(-c2cc(OC)cc(OC)c2Br)ccc1=O [Compound 120] | H (H shows more than 50% of control values) | H (H shows more than 50% of control values) | H (H shows more than 50% of control values) | H (H shows more than 50% of control values) |  |
| COc1ccc(Br)cc1-c1cc(Br)c(=O)n(C)c1-c1c(F)cccc1F [Compound 139] | H (H shows more than 50% of control values) | H (H shows more than 50% of control values) | L (L shows 50% or less of control values) | H (H shows more than 50% of control values) |  |
| Cn1c(-c2c(F)cccc2F)c(-c2ccccc2Br)cc(Br)c1=O [Compound 96] | H (H shows more than 50% of control values) | H (H shows more than 50% of control values) | H (H shows more than 50% of control values) | H (H shows more than 50% of control values) |  |
| Cn1c(-c2c(F)cccc2F)c(-c2ccccc2Cl)cc(Br)c1=O [Compound 79] | H (H shows more than 50% of control values) | H (H shows more than 50% of control values) | H (H shows more than 50% of control values) | H (H shows more than 50% of control values) |  |
| Cn1c(-c2c(F)cccc2F)c(-c2ccccc2)ccc1=O [Compound 47] | H (H shows more than 50% of control values) | H (H shows more than 50% of control values) | H (H shows more than 50% of control values) | H (H shows more than 50% of control values) |  |
| COc1ccc(Cl)c(-c2cc(Br)c(=O)n(C)c2-c2c(F)cccc2F)c1 [Compound 61] | H (H shows more than 50% of control values) | H (H shows more than 50% of control values) | H (H shows more than 50% of control values) | H (H shows more than 50% of control values) |  |
| COc1ccc(Cl)c(-c2ccc(=O)n(C(C)C)c2-c2c(F)cccc2F)c1 [Compound 412] |  |  |  |  | Test B (control value class) (Botrytis cinerea; [3]): H (H shows more than 50% of control values); Test E (control value class) (Puccinia recondita; [4]): H (H shows more than 50% of control values); Test D (control value class) [1, 5]: H (H shows more than 50% of control values); Test C (control value class) (Alternaia brassicicola; 250 ppm spray): H (H shows more than 50% of control values) |
| CCn1c(-c2c(F)cccc2F)c(-c2ccccc2OC)ccc1=O [Compound 123] | H (H shows more than 50% of control values) | H (H shows more than 50% of control values) | H (H shows more than 50% of control values) | H (H shows more than 50% of control values) |  |
| COc1cc(F)c(-c2c(-c3cc(OC)cc(OC)c3Cl)ccc(=O)n2C)c(F)c1 [Compound 82] | H (H shows more than 50% of control values) | H (H shows more than 50% of control values) | H (H shows more than 50% of control values) | H (H shows more than 50% of control values) |  |
